# Laboratory results as given in article PMC12820563.
# This is one part of the list. The list includes weakly bound sequences.
# Biological target: T1, MBP-FoxP3dN (UniProt Q99JB6)
# T1 sequence: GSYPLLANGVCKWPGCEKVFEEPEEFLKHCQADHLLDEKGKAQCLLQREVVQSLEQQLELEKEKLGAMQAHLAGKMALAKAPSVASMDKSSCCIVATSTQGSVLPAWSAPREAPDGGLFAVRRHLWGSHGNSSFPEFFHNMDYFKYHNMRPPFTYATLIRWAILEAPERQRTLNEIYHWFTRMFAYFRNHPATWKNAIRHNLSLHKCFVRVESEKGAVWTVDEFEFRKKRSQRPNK
# Experiment: PD-seq (MBP pull-down with sequencing)
# Settings: 20 mM Tris-HCl pH 7.5, 100 mM NaCl, 1.5 mM MgCl2, 0.4 uM protein, 0.1 uM dsDNA library, 30 min, room temperature, amylose pull-down; high values mean tight binding; double strand, one strand shown
row,Sequence,binding signal (RPM ratio (pull-down/input))
1,GATGATTGTTCTCCCAGCTGATGAATTAATCGCGTCGAGTAAACAAATTTTCCTAATCTTTCTGTTCAAGCGCCATCTAC,0.578
2,GATGATTGTTCTCCCAGCTGATGAATTAACAACGTCGAGTAAACAAATTTTCCTAATCTTTCTGTTCAAGCGCCATCTAC,0.545
3,GATGATTGTTCTCCCAGCTGATGAATTCACGTCGTCGAGTAAACAAATTTTCCTAATCTTTCTGTTCAAGCGCCATCTAC,0.486
4,GATGATTGTTCTCCCAGCTGATGAATTAGTACCATCGAGTAAACAAATTTTCCTAATCTTTCTGTTCAAGCGCCATCTAC,0.878
5,GATGATTGTTCTCCCAGCTGATGAATTGGGCCGATCGAGTAAACAAATTTTCCTAATCTTTCTGTTCAAGCGCCATCTAC,0.464
6,GATGATTGTTCTCCCAGCTGATGAATTGATCGAGTCGAGTAAACAAATTTTCCTAATCTTTCTGTTCAAGCGCCATCTAC,0.295
7,GATGATTGTTCTCCCAGCTGATGAATTAGGAATTTCGAGTAAACAAATTTTCCTAATCTTTCTGTTCAAGCGCCATCTAC,1.18
8,GATGATTGTTCTCCCAGCTGATGAATTGGTGGAATCGAGTAAACAAATTTTCCTAATCTTTCTGTTCAAGCGCCATCTAC,0.276
9,GATGATTGTTCTCCCAGCTGATGAATTTCTAAATTCGAGTAAACAAATTTTCCTAATCTTTCTGTTCAAGCGCCATCTAC,0.265
10,GATGATTGTTCTCCCAGCTGATGAATTCTCGGACTCGAGTAAACAAATTTTCCTAATCTTTCTGTTCAAGCGCCATCTAC,0.183
11,GATGATTGTTCTCCCAGCTGATGAATTATTAATCTCGAGTAAACAAATTTTCCTAATCTTTCTGTTCAAGCGCCATCTAC,0.4
12,GATGATTGTTCTCCCAGCTGATGAATTGAGGGAGTCGAGTAAACAAATTTTCCTAATCTTTCTGTTCAAGCGCCATCTAC,0.308
13,GATGATTGTTCTCCCAGCTGATGAATTCCGGTTCTCGAGTAAACAAATTTTCCTAATCTTTCTGTTCAAGCGCCATCTAC,0.726
14,GATGATTGTTCTCCCAGCTGATGAATTGGCCTACTCGAGTAAACAAATTTTCCTAATCTTTCTGTTCAAGCGCCATCTAC,0.418
15,GATGATTGTTCTCCCAGCTGATGAATTTCCGCCGTCGAGTAAACAAATTTTCCTAATCTTTCTGTTCAAGCGCCATCTAC,0.555
16,GATGATTGTTCTCCCAGCTGATGAATTCTGCTTATCGAGTAAACAAATTTTCCTAATCTTTCTGTTCAAGCGCCATCTAC,5.11
17,GATGATTGTTCTCCCAGCTGATGAATTTCAAGTGTCGAGTAAACAAATTTTCCTAATCTTTCTGTTCAAGCGCCATCTAC,0.415
18,GATGATTGTTCTCCCAGCTGATGAATTATGCATATCGAGTAAACAAATTTTCCTAATCTTTCTGTTCAAGCGCCATCTAC,4.03
19,GATGATTGTTCTCCCAGCTGATGAATTGCGTTTTTCGAGTAAACAAATTTTCCTAATCTTTCTGTTCAAGCGCCATCTAC,2.11
20,GATGATTGTTCTCCCAGCTGATGAATTGATGTAGTCGAGTAAACAAATTTTCCTAATCTTTCTGTTCAAGCGCCATCTAC,0.84

row,Sequence,binding signal (RPM ratio (pull-down/input))
1,GATGATTGTTCTCCCAGCTGATGAATTAGTATCGTCGAGTAAACAAATTTTCCTAATCTTTCTGTTCAAGCGCCATCTAC,1.96
2,GATGATTGTTCTCCCAGCTGATGAATTACGGATATCGAGTAAACAAATTTTCCTAATCTTTCTGTTCAAGCGCCATCTAC,0.455
3,GATGATTGTTCTCCCAGCTGATGAATTTGTCCGATCGAGTAAACAAATTTTCCTAATCTTTCTGTTCAAGCGCCATCTAC,0.439
4,GATGATTGTTCTCCCAGCTGATGAATTACACGGGTCGAGTAAACAAATTTTCCTAATCTTTCTGTTCAAGCGCCATCTAC,0.325
5,GATGATTGTTCTCCCAGCTGATGAATTGCCTCGTTCGAGTAAACAAATTTTCCTAATCTTTCTGTTCAAGCGCCATCTAC,0.803
6,GATGATTGTTCTCCCAGCTGATGAATTCACCCCTTCGAGTAAACAAATTTTCCTAATCTTTCTGTTCAAGCGCCATCTAC,0.282
7,GATGATTGTTCTCCCAGCTGATGAATTATGTATATCGAGTAAACAAATTTTCCTAATCTTTCTGTTCAAGCGCCATCTAC,5.96
8,GATGATTGTTCTCCCAGCTGATGAATTGCAGGTGTCGAGTAAACAAATTTTCCTAATCTTTCTGTTCAAGCGCCATCTAC,1
9,GATGATTGTTCTCCCAGCTGATGAATTGTAGGAGTCGAGTAAACAAATTTTCCTAATCTTTCTGTTCAAGCGCCATCTAC,0.309
10,GATGATTGTTCTCCCAGCTGATGAATTATCACCGTCGAGTAAACAAATTTTCCTAATCTTTCTGTTCAAGCGCCATCTAC,0.309
11,GATGATTGTTCTCCCAGCTGATGAATTATGCGGTTCGAGTAAACAAATTTTCCTAATCTTTCTGTTCAAGCGCCATCTAC,1.36
12,GATGATTGTTCTCCCAGCTGATGAATTCGCGCCGTCGAGTAAACAAATTTTCCTAATCTTTCTGTTCAAGCGCCATCTAC,0.645
13,GATGATTGTTCTCCCAGCTGATGAATTCCCTTTGTCGAGTAAACAAATTTTCCTAATCTTTCTGTTCAAGCGCCATCTAC,0.433
14,GATGATTGTTCTCCCAGCTGATGAATTGAACCTATCGAGTAAACAAATTTTCCTAATCTTTCTGTTCAAGCGCCATCTAC,0.375
15,GATGATTGTTCTCCCAGCTGATGAATTTAACGTCTCGAGTAAACAAATTTTCCTAATCTTTCTGTTCAAGCGCCATCTAC,0.813
16,GATGATTGTTCTCCCAGCTGATGAATTAACACTCTCGAGTAAACAAATTTTCCTAATCTTTCTGTTCAAGCGCCATCTAC,0.48
17,GATGATTGTTCTCCCAGCTGATGAATTGAACTCCTCGAGTAAACAAATTTTCCTAATCTTTCTGTTCAAGCGCCATCTAC,0.282
18,GATGATTGTTCTCCCAGCTGATGAATTATTATTATCGAGTAAACAAATTTTCCTAATCTTTCTGTTCAAGCGCCATCTAC,1.99
19,GATGATTGTTCTCCCAGCTGATGAATTTTTTTGATCGAGTAAACAAATTTTCCTAATCTTTCTGTTCAAGCGCCATCTAC,0.23
20,GATGATTGTTCTCCCAGCTGATGAATTGACGAGTTCGAGTAAACAAATTTTCCTAATCTTTCTGTTCAAGCGCCATCTAC,0.402
